# Test results reported in PubChem BioAssay AID504832 (National Center for Advancing Translational Sciences (NCATS), 2011).
# Hit rate of the full screen: of about 310,000 compounds, about 18,000 (5.8%) were called active. The shares of active, inactive and inconclusive entries below differ from those in the screen. The call rests on the fitted dose curve; in most records, active means well fitted inhibition curve with a large enough effect; inconclusive means small, poorly fitted or top-dose-only effect, or another doubt; inactive means no such curve, though single readings can be large or run the other way. No potency is given beside an inconclusive call; the fits are too rough.
# Assay: Primary qHTS for delayed death inhibitors of the malarial parasite plastid, 48 hour incubation
# Conditions: P. falciparum luciferase growth in erythrocytes; series mostly up to 28.7 µM
# Procedure, shortened: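 Growth was read as firefly luciferase luminescence after a 48 h, 37 C, 5% CO2 exposure of compounds to reporter-bearing P. falciparum cultures (0.1% parasitemia, 2% hematocrit final) in Albumax-supplemented RPMI 1640.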
# Potency means the concentration at half of the fitted maximal effect; tags describe the fitted curve by direction and shape.
row,SMILES,Potency
1,Cc1nc(Nc2ccccc2)sc1-c1ccccc1,inactive
2,O=C(CSc1n[nH]c(=O)n1-c1cccnc1)N1CCOCC1,inactive
3,Cc1ccc(OCc2n[nH]c(=S)n2-c2ccccc2)cc1,"inconclusive [inhibitor, full curve, poor fit]"
4,COc1ccc(NC2(c3ccccc3)OC(=O)c3ccccc32)cc1 (configuration not stated),inactive
5,Cc1nn(C2CCS(=O)(=O)C2)c(Cl)c1/C=C/C(=O)OCC(=O)c1cc(C)n(-c2ccc(F)cc2)c1C (configuration not stated),active: 14.7 µM
6,CC1=CC(=C(C#N)c2nc3ccccc3s2)C=C(C)N1c1ccc(F)cc1,"inconclusive [inhibitor, single point]"
7,COc1cc2cc(C(=O)N/N=C/c3ccccc3Cl)[nH]c2cc1OC,"inconclusive [inhibitor, partial curve, poor fit]"
8,O=C(Nc1ccc(Br)cn1)c1cccc(-c2cc3ccccc3oc2=O)c1,inactive
9,O=C(Cn1c(-c2cscn2)nc2ccccc21)Nc1ccc(Cl)cc1,"inconclusive [inhibitor, single point]"
10,CC1CCCC(C)N1C(=O)Cn1c(SCC(=O)NCc2ccc3c(c2)OCO3)nc2ccccc21 (configuration not stated),active: 6.57 µM
11,O=C(Nc1ccn(Cc2ccccc2F)n1)c1ccc(COc2ccccc2Cl)cc1,"inconclusive [inhibitor, single point]"
12,Cc1ccc(S(=O)(=O)/N=C(\CCl)N2CCOCC2)cc1,active: 13.1 µM
13,CCOP(=O)(OCC)C(Nc1cccc(C(F)(F)F)c1)c1ccc(F)cc1 (configuration not stated),"inconclusive [inhibitor, single point]"
14,COc1cc2ccccc2cc1C(=O)N(CCN(C)C)c1nc2ccc(C)cc2s1,"inconclusive [inhibitor, single point]"
15,CN(C)C(CNC(=O)c1ccc2c(=O)n(-c3ccccc3F)c(=S)[nH]c2c1)Cc1ccccc1 (configuration not stated),"inconclusive [inhibitor, partial curve, poor fit]"
16,COc1ccc(CNC(=O)c2cc3c(=O)n4cccc(C)c4nc3n(CC3CCCO3)c2=N)cc1 (configuration not stated),"inconclusive [inhibitor, full curve]"
17,CC[n+]1ccccc1/C=C/Nc1ccccc1,"inconclusive [inhibitor, partial curve, poor fit]"
18,O=C(O)c1cccc(COc2ccc(CO)cc2Cl)c1,active: 0.208 µM
19,CCOc1cc(NC(=S)NCC(C)C)c(OCC)cc1NC(=O)c1cccs1,"inconclusive [inhibitor, single point]"
20,c1sc2[n+](c1C13CC4CC(CC(C4)C1)C3)CCS2,active: 2.33 µM
21,CC(=O)Nc1cccc(-c2nc3ccccc3[nH]2)c1,inactive
22,CN/N=C(\Cc1nc2ccccc2[nH]1)c1ccc([N+](=O)[O-])cc1,"inconclusive [inhibitor, single point]"
23,NC(=O)c1ccc(N2CCC(C(N)=O)CC2)c([N+](=O)[O-])c1,inactive
24,COc1ccc(C(=O)NCC2CCCN2S(=O)(=O)c2cccs2)cc1 (configuration not stated),inactive

row,SMILES,Potency
1,CC(C)c1ccccc1NC(=S)NC1CCCCC1,"inconclusive [inhibitor, single point]"
2,COc1cc(NC(=O)c2c(F)c(F)c(OC)c(F)c2F)ccc1NC(=O)c1cccs1,inactive
3,Cc1ccc2cc(C#N)c(SCC(=O)NCc3ccco3)nc2c1,inactive
4,COc1ccccc1CNC(=O)c1cc2c(=O)[nH]c3ccccc3c2n1C,"inconclusive [inhibitor, partial curve]"
5,OC(CNCc1ccccc1)(c1ccc(F)cc1)c1ccc(F)cc1,active: 4.65 µM
6,OCC1CCCN(Cc2cn(Cc3ccccc3)nc2-c2cc3ccccc3o2)C1 (configuration not stated),active: 14.7 µM
7,Cc1nc(NC2=NCN(CCCN3CCOCC3)CN2)nc2c(C)cccc12,active: 2.33 µM
8,O=C(COC(=O)c1cncc(Br)c1)Nc1ccc2c(c1)OCO2,inactive
9,COc1ccc(NS(=O)(=O)c2cccc(-c3n[nH]c(=S)n3Cc3ccccc3)c2)cc1,"inconclusive [inhibitor, partial curve, poor fit]"
10,Cc1cc(C)c2c(-n3cccc3)c(NC(=O)OC(C)C)sc2n1,"inconclusive [inhibitor, single point]"
11,C/C(=N\NC(=O)c1ccc(Cl)c(S(=O)(=O)Nc2ccccc2Cl)c1)c1ccncc1,inactive
12,N#Cc1ccccc1NC(=O)CN(Cc1ccccc1)Cc1ccccc1,"inconclusive [inhibitor, single point]"
13,Cc1ccc(NC(=O)C2CCN(S(=O)(=O)c3ccc4ccccc4c3)CC2)nc1,inactive
14,COc1cc(C(=O)Nc2cccc(-n3cnnn3)c2)cc(OC)c1OC,inactive
15,CCC(C)NC(=O)C1CCN(S(=O)(=O)c2ccc(-n3cnnn3)cc2)CC1 (configuration not stated),inactive
16,C=C1CCC[C@]2(C)C[C@H]3OC(=O)C(CNC(C)CC)[C@H]3CC12 (some centres not stated),"inconclusive [inhibitor, single point]"
17,Cc1cc2cc(CNC(=O)c3cc4ccccc4o3)ccc2n1C,active: 11.7 µM
18,COc1ccccc1C#Cc1ccc2c(=O)c3ccccc3n(C)c2c1,"inconclusive [inhibitor, partial curve]"
19,CCN(CC(=O)Nc1ccccc1C(=O)NC1CC1)Cc1cccs1,"inconclusive [inhibitor, single point]"
20,Cc1nn2c(=O)cc(CSCC(=O)Nc3ccccc3F)nc2s1,inactive
21,CCOCCCN(C(=O)c1snc(C(N)=O)c1N)C(C(=O)NCCC(C)C)c1ccc(F)cc1 (configuration not stated),"inconclusive [inhibitor, single point]"
22,CCOC(=O)Nc1cccc(NC(=O)c2cc(OC)cc(OC)c2)c1,"inconclusive [inhibitor, single point]"
23,O=C(CN(Cc1ccccc1)S(=O)(=O)c1ccccc1)N/N=C/c1ccccc1[N+](=O)[O-],"inconclusive [inhibitor, partial curve, poor fit]"
